Results from PubChem BioAssay AID651820 (National Center for Advancing Translational Sciences (NCATS), 2012).
Among all 340,000 compounds or so, about 12,000 (3.5%) were called active. This list was built around the results that the source calls inconclusive (neither active nor inactive); the mix of calls is not that of the screen. Calls follow the shape of the dose curve; as a rule, active = well fitted inhibition curve with a large enough effect; inconclusive = small, poorly fitted or top-dose-only effect, or another doubt; inactive = no such curve, though single readings can be large or run the other way. No potency is given beside an inconclusive call; the fits are too rough.
% is scaled to controls: 0 for no effect and ±100 for the full control effect; potency is read from the fitted curve at half-maximal effect; tags tell the direction and shape of the fitted curve.

Test: qHTS Assay for Inhibitors of Hepatitis C Virus (HCV)
Details: Huh7.5.1 HCVcc-Cre (HCVcc is cell-culture hepatitis C virus) infection, luciferase reporter, 44 h; activity change, negative = inhibition: at 41.8 µM (top of the series) unless noted
In short: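 HCVcc-Cre virus at an moi near 0.5 was added right after compound to cells cultured 4 h from seeding (1,000 cells/well). Luciferase activity was determined 44 h later, 15 min after substrate addition at RT.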
In the case of `Cc1ccc2nc(-c3ccncc3)cc(C(=O)Nc3ccc(F)cc3C)c2c1`, the “activity change, negative = inhibition” value was inactive: -5.6%.
With `CC(=O)Nc1cn(C(C)=O)c(C)n1` the “activity change, negative = inhibition” value was inactive: 12.7%.
With `COC(=O)C(C(=O)OC)[C@@H]1C=C[C@H](C[N+](=O)[O-])N(C(C)=O)C1` the Potency was inconclusive [inhibitor, single point].
For `CC(=O)N1NC(=Nc2ccccc2)SC1(C)C`, the Potency was inconclusive [inhibitor, partial curve, poor fit].
With `CC1(C)CC(NC(=O)C(=O)NCCc2ccc(Cl)cc2)CC(C)(C)N1` the Potency was inconclusive [inhibitor, single point].
In the case of `COc1cccc(CN(C)C(=O)c2cccc(S(=O)(=O)N3CCN(c4ccc(F)cc4)CC3)c2)c1OC`, the Potency was inconclusive [inhibitor, partial curve].
In the case of `Cc1cc(C)n(-c2ccc(C(=O)N3CCc4ccccc43)cc2)n1`, the Potency was inconclusive [inhibitor, single point].
With `Cc1[nH]nc(-c2cccnc2)c1N=NN(C)C` the Potency was inconclusive [inhibitor, partial curve].
With `Cc1ccc(C(C)C)cc1OCC(=O)Nc1ccccc1N1CCCC1` the Potency was inconclusive [inhibitor, single point].
For `O=C(/C=C/c1ccc(F)cc1)NNC(=O)CCN1CCN(Cc2ccccc2)CC1`, the “activity change, negative = inhibition” value was inactive: 0.13%.
In the case of `CN(c1ccccc1)S(=O)(=O)c1ccc(NC(=O)c2ccc(F)cc2)cc1`, the Potency was inconclusive [inhibitor, single point].
With `Cc1ccc(-n2c(O)c(C=Nc3cc(C)on3)c3ccccc3c2=O)c(C)c1` the Potency was inconclusive [inhibitor, partial curve].
With `COc1ccccc1-c1cnn2c(NCCc3ccccc3)cc(C)nc12` the Potency was active: 10 µM.
For `O=C(CN1C(=O)NC2(CCc3ccccc32)C1=O)c1ccc(F)cc1` (stereo unspecified), the “activity change, negative = inhibition” value was inactive: 7.9%.
In the case of `N#C/C(=C\c1c(N2CCN(c3ccccc3)CC2)nc2ccccn2c1=O)C(N)=O`, the “activity change, negative = inhibition” value was inactive: -2.36%.
In the case of `COc1ccc(CCNC(=O)c2cc3c(=O)n4ccccc4nc3n(CCN3CCOCC3)c2=N)cc1`, the Potency was inconclusive [inhibitor, single point].
In the case of `O=C(Nc1nccs1)c1ccc(COc2ccc(F)cc2)o1`, the Potency was inconclusive [inhibitor, single point].
With `O=C(NCCOc1ccccc1)c1cc(C(=O)NCCOc2ccccc2)cc([N+](=O)[O-])c1` the Potency was inconclusive [inhibitor, single point].
With `O=C(Nc1ccc2oc(-c3ccncc3)nc2c1)c1ccc([N+](=O)[O-])o1` the Potency was active: 10 µM.
In the case of `Cc1ccc(S(=O)(=O)c2c(C)nn(C(C)(C)C)c2OC(=O)c2cccs2)cc1`, the Potency was inconclusive [inhibitor, single point].
With `O=C(CSc1nnc2c(Cl)cc(C(F)(F)F)cn12)N(Cc1ccccc1)Cc1ccccc1` the “activity change, negative = inhibition” value was inactive: -3.29%.
For `COc1ccc2cc(CCNS(=O)(=O)c3ccc(NC(C)=O)cc3)c(=O)[nH]c2c1`, the “activity change, negative = inhibition” value was inactive: 4.81%.
In the case of `O=C1c2ccccc2NC(c2ccco2)N1/N=C/c1ccco1` (stereo unspecified), the “activity change, negative = inhibition” value was inactive: -7.29%.
For `c1ccc(-c2csc(Nc3cccnc3)n2)nc1`, the Potency was active: 10 µM.
For `CCn1c(CCNC(=O)c2ccc(OC)cc2)nnc1SCc1ccc(Cl)cc1Cl`, the Potency was inconclusive [inhibitor, single point].
In the case of `O=C(C1CCN(CCCc2ccccc2)CC1)N(CCc1ccccc1)Cc1ccccc1`, the Potency was inconclusive [inhibitor, single point].
For `CC(Sc1nc(NCc2ccccc2)nc(N(C)C)n1)C(=O)Nc1ccccc1` (stereo unspecified), the Potency was inconclusive [inhibitor, partial curve].
In the case of `Cc1occc1-c1nnc(SCC(=O)Nc2nc(C(C)(C)C)cs2)o1`, the Potency was inconclusive [inhibitor, partial curve].
With `C=CCN1C(=O)/C(=C\c2cccs2)C(C(=O)OC)=C1C` the Potency was inconclusive [inhibitor, single point].
With `CCOC(=O)c1c(C)c(C(=O)NCc2ccccn2)c(C)n1C` the Potency was inconclusive [inhibitor, single point].
With `OCCOCCOCCn1c2ccccc2c2ccccc21` the Potency was inconclusive [inhibitor, single point].
With `CCC(C)N1C(=O)/C(=C/c2ccc3c(c2)CCN3CCCCl)C(=O)NC1=S` (stereo unspecified) the “activity change, negative = inhibition” value was inactive: 3.65%.
In the case of `Cc1cc(/C=C(\C#N)C(=O)NCc2ccco2)c(C)[nH]1`, the Potency was inconclusive [inhibitor, single point].
With `CCOC(=O)c1[nH]c2ccc(OC)cc2c1NC(=S)N1CCN(c2cccc(Cl)c2)CC1` the Potency was inconclusive [inhibitor, single point].
For `CC(C)CCN1C(N(C)C)=NC[C@@H]1C`, the “activity change, negative = inhibition” value was inactive: 19.3%.
For `Cc1ccc2c(CC(=O)NCCc3ccc(S(N)(=O)=O)cc3)coc2c1`, the “activity change, negative = inhibition” value was inactive: 16.2%.
With `CCC1=Nc2cc(C(=O)NCc3cccnc3)ccc2Sc2ccc(C)cc21` the Potency was inconclusive [inhibitor, partial curve].
With `O=C(Cn1cnc2c(nnn2-c2ccc(F)cc2)c1=O)NCC1CCCO1` (stereo unspecified) the “activity change, negative = inhibition” value was inactive: -1.47%.
In the case of `CCN(C(=O)CSc1nc2n[nH]c(C)c2c(=N)n1-c1ccc(Cl)c(C)c1)c1cccc(C)c1`, the Potency was inconclusive [inhibitor, partial curve].
With `CCNc1ccc2c(Cl)cc(=O)oc2c1` the Potency was inconclusive [inhibitor, single point].
With `Cc1nc(Nc2cccc(C(C)O)c2)c2nnn(Cc3ccc(F)cc3)c2n1` (stereo unspecified) the Potency was inconclusive [inhibitor, partial curve].
For `CCc1ccc2nc(SCC(=O)NCC3CCCO3)c(C#N)cc2c1` (stereo unspecified), the Potency was inconclusive [inhibitor, single point].
In the case of `CCOc1cccc(C(=O)Nc2ccc(NC(=O)c3ccccc3)c(C)c2)c1`, the Potency was inconclusive [inhibitor, partial curve].
For `CCOC(=O)c1[nH]c2c(c1-c1ccccc1)C(=O)CC(c1ccc(OC)c(OC)c1)C2` (stereo unspecified), the Potency was inconclusive [inhibitor, partial curve].
For `CC1(C)Cc2ccccc2C(NNC(=O)c2ccccn2)=N1`, the Potency was inconclusive [inhibitor, single point].
With `COC(=O)[C@H](C(C)C)N(Cc1ccccc1)S(=O)(=O)CCN1CCN(c2ccccc2)CC1` the Potency was inconclusive [inhibitor, partial curve, poor fit].
For `CCOc1cccc(C2CC(=O)Nc3cc(OC)c(OC)cc32)c1` (stereo unspecified), the Potency was inconclusive [inhibitor, single point].
In the case of `O=c1c(CN2CCN(c3ccccn3)CC2)coc2ccccc12`, the “activity change, negative = inhibition” value was inactive: 7.15%.
For `COc1ccccc1CCC(=O)Nc1ccc(OC)c(S(=O)(=O)N2CCOCC2)c1`, the “activity change, negative = inhibition” value was inactive: -2.67%.
With `CCOc1ccc(Br)cc1C1C(C(=O)OC)=C(N)Oc2cc(N(C)C)ccc21` (stereo unspecified) the Potency was inconclusive [inhibitor, partial curve].
In the case of `COc1cc(CN2CCCC(N3CCN(c4ccccc4C)CC3)C2)ccc1O` (stereo unspecified), the Potency was inconclusive [inhibitor, single point].
With `COc1ccc(NC(=O)CCn2c(=O)c3cccn3c3ccccc32)c(OC)c1` the Potency was inconclusive [inhibitor, partial curve].
In the case of `Cc1nc2ccccc2c2nc3ccccc3n12`, the Potency was inconclusive [inhibitor, single point].
In the case of `Cc1[nH]nc(-c2ccc(O)c(C)c2O)c1-c1cnn(-c2ccccc2)c1`, the Potency was active: 3.98 µM.
With `O=C(CCc1nc2ccccc2[nH]1)Nc1ccc2c(c1)OCCO2` the activity change, negative = inhibition was inactive: 1.5% [at 8.37 µM].
In the case of `COc1ccc(S(=O)(=O)Nc2c(NC3CCCCC3)c3ccccc3oc2=O)cc1`, the Potency was inconclusive [inhibitor, single point].
With `Cc1ccc(Sc2c(C)[nH]n(C(C)(C)C)c2=O)cc1` the “activity change, negative = inhibition” value was inactive: 15.7%.
With `Cc1ccc(CNC(=O)CN(c2ccc(C)cc2)S(=O)(=O)c2c(C)nn(C)c2C)cc1` the Potency was inconclusive [inhibitor, single point].
In the case of `COc1ccc(C(=O)NCc2cc(C)nc3ccccc23)cc1`, the Potency was active: 15.8 µM.
In the case of `Cc1ccc(SC(C)C(=O)O/N=C(\N)c2ccncc2)cc1` (stereo unspecified), the Potency was inconclusive [inhibitor, single point].
In the case of `Cc1cc(/C=N/Nc2ncnc(N)c2[N+](=O)[O-])c(C)n1-c1ccccc1`, the Potency was inconclusive [inhibitor, single point].
For `CCNC(=O)/C(C#N)=C/c1c(N2CCN(c3ccc(OC)cc3)CC2)nc2c(C)cccn2c1=O`, the “activity change, negative = inhibition” value was inactive: -21.3%.
For `CC1(CCc2ccccc2)NC(=O)N(CC(=O)Nc2ccc(S(N)(=O)=O)cc2)C1=O` (stereo unspecified), the “activity change, negative = inhibition” value was inactive: -2.74%.
In the case of `C=CCc1ccc(OCCCCNC2CCCC2)c(OC)c1`, the Potency was active: 10 µM.
In the case of `Cc1ccnc(NC(=O)C23CC4CC(CC(C4)C2)C3)c1`, the “activity change, negative = inhibition” value was inactive: -13.2%.
For `Cc1cccc(OCC(=O)Nc2ccc3c(c2)nc(CCN2CCN(c4ccccn4)CC2)n3C)c1`, the Potency was active: 6.31 µM.
For `Cc1ccccc1Cn1ccc(-c2ccc3c(c2)OCO3)n1`, the “activity change, negative = inhibition” value was inactive: -26.5%.
For `Cc1ccsc1C1C(C#N)=C(N)Oc2n[nH]c(C)c21` (stereo unspecified), the “activity change, negative = inhibition” value was inactive: 16.4%.
With `CCOc1ccc(C(=O)N(Cc2ccc(OC)cc2)Cc2cc3cc(OC)ccc3[nH]c2=O)cc1` the Potency was inconclusive [inhibitor, partial curve, poor fit].
For `COc1cc2c(cc1OC)C(C(=O)Nc1ccc3c(c1)OCCO3)C(c1cccnc1)N(C)C2=O` (stereo unspecified), the Potency was inconclusive [inhibitor, single point].
For `COc1ccc(Cn2c(=O)n(Cc3ccco3)c(=N)c3c4c(sc32)COC(C)(C)C4)cc1`, the Potency was active: 12.6 µM.
